# Laboratory results from the supplement of paper PMC5499739.
# In all, about 16,000 sequences were measured (“Z-score”: median about -0.37, highest 2% from about 3.2 on). The list shows a part of the results.
# Test system: RBM10 RRM1-ZnF (GST-tagged construct)
# Assay: RNAcompete 7-mer binding Z-score; higher = stronger binding preference
# Protocol: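 RNAcompete: 20 pmol GST-tagged RBM10 RNA-binding constructs were incubated with a designed RNA pool of about 241,000 sequences up to 41 nt (1.5 nmol) on glutathione beads for 30 min at 4 °C and washed. Bound RNAs were identified by microarray hybridisation. Each RNA 7-mer is scored by a one-sided Z-score of its enrichment, computed over probes that contain the 7-mer within longer pool sequences.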
row,Sequence,RNAcompete 7-mer binding Z-score
1,ACUGGAU,0.582
2,AAGCGGC,0.199
3,CUCGUCG,-0.513
4,UGUGGUA,1.37
5,GCAGUAC,-0.0187
6,UCGAUGA,-0.331
7,AAGGUUU,2.51
8,GUGUAUA,0.654
9,CACCUCU,-0.828
10,UGUGUAC,-0.207
11,CUCUCUU,-0.873
12,AUACCAC,-0.578
13,UACCACC,-0.629
14,CUCUUAA,-0.802
15,CCCGUAU,-0.828
16,CGAGCCU,-0.61
17,GACCCGC,-0.724
18,GAUUAUA,-0.0382
19,CCGUAUU,-0.844
20,CCGUGUU,-0.617
21,CUCGGAC,-0.542
22,CAAGUGC,-0.256
23,GGCUUGU,-0.243

row,Sequence,RNAcompete 7-mer binding Z-score
1,GCUCCUG,-0.392
2,GACAAAG,0.803
3,AAGUGCA,0.017
4,UAACCCG,-0.668
5,UGGAACU,0.696
6,CACUCUU,-0.873
7,UCCAGGG,0.865
8,GUGAGCA,0.582
9,CUAGCAU,-0.642
10,UAAGGGA,3.27
11,CAUUAGA,-0.493
12,UUACACU,-0.724
13,UGAAGAG,1.15
14,UGGGAAA,2.58
15,GCCACGG,0.332
16,CGAGCUG,-0.171
17,CUUAAUA,-0.73
18,ACACGUG,-0.0934
19,UGCCUGG,-0.223
20,ACGCUCC,-0.698
21,UUGACGU,-0.448
22,UUAUUAC,-0.594
23,UUUGGAC,-0.223

row,Sequence,RNAcompete 7-mer binding Z-score
1,GCCCGAC,-0.532
2,CAGCUGC,-0.474
3,AGCCGCG,-0.386
4,CCAUCCC,-0.591
5,CCAACCU,-0.785
6,UUUGGGU,2.47
7,GGUCCAG,0.0398
8,GUCAAGG,1.6
9,CAGACCG,-0.392
10,UUUCACG,-0.766
11,GUACUCU,-0.6
12,GUUUGAC,-0.292
13,AACUUUU,-0.798
14,GUCUCCA,-0.714
15,ACAGCUG,-0.256
16,CUUUGCG,-0.821
17,UGCAAGC,-0.62
18,CAUGAGG,1.03
19,UAACUCG,-0.665
20,CUGCUGA,-0.379
21,CAACGGA,0.563
22,ACACACG,-0.256
23,ACCGACU,-0.766

row,Sequence,RNAcompete 7-mer binding Z-score
1,GACAUGA,0.235
2,UGCCCCU,-0.22
3,AGUAGGC,0.975
4,CCACGGC,-0.474
5,UAGAUUC,-0.379
6,UAAACCC,-0.714
7,UCGGGCC,-0.376
8,AGAUCGA,-0.344
9,GUGUUAC,-0.308
10,GCUGGCC,-0.308
11,GAACAGA,0.439
12,AGAGCAU,-0.366
13,GCCUGUU,-0.724
14,UCCUAAU,-0.711
15,UAGAUGG,2.26
16,UCAGGGA,2.02
17,AAAUAUG,-0.0577
18,AUUUGAC,-0.626
19,AUCGUUU,-0.626
20,UAGUCUC,-0.733
21,AUGGCUA,0.43
22,UGAACCU,-0.604
23,GCGGUGG,2.85

row,Sequence,RNAcompete 7-mer binding Z-score
1,AACGCCA,-0.552
2,AAUUAAU,-0.422
3,UCGUUUC,-0.737
4,CCGCCGG,-0.35
5,UUUGAGC,-0.503
6,CCGACAG,-0.522
7,UCAGGGG,1.81
8,AACCCAG,-0.34
9,GUGCACU,-0.00896
10,AGUUUCC,-0.733
11,GCGAAAC,-0.123
12,UUUCCCG,-0.854
13,UCGGCCG,-0.636
14,CUAAGAA,-0.331
15,CUAUGAA,-0.441
16,CGCAUUU,-0.876
17,CCCGAGU,-0.412
18,AUGGUAA,2.2
19,CUUGCUA,-0.87
20,CCGAUCA,-0.707
21,AUUAAAG,0.186
22,CUCUGUU,-0.808
23,UGCAUUC,-0.594

row,Sequence,RNAcompete 7-mer binding Z-score
1,CAUCCCC,-0.626
2,AUAAUUA,-0.506
3,GCAGAUG,1.24
4,ACUUUUC,-0.88
5,UCGAGCA,-0.324
6,CAAGGAU,1.36
7,GGCAUAA,0.157
8,AACAGAC,-0.116
9,CAAAGUA,-0.223
10,GGCUAAA,0.586
11,GCUUUGG,0.0333
12,UGCAGUA,-0.103
13,UUGAUCU,-0.665
14,GGUCCGU,0.157
15,CGCCUAC,-0.646
16,GCUUGGA,0.316
17,AGUGGCA,1.18
18,GAUGUCC,-0.513
19,GGUAAUA,1.23
20,GAGUACA,0.215
21,UAGAUCU,-0.607
22,GGCACUA,0.335
23,UACAGUA,-0.0544

row,Sequence,RNAcompete 7-mer binding Z-score
1,GAUCCGA,-0.698
2,GUUUGCG,0.228
3,GCUUUUU,-0.837
4,CUAGAAA,-0.409
5,CGUAUAC,-0.477
6,ACCGCGU,-0.727
7,UCCAAUA,-0.642
8,ACAAAGC,-0.529
9,CCUAAAA,-0.763
10,UGCCCGG,-0.191
11,GCUAAAG,-0.0479
12,AUUAUAC,-0.688
13,AUAGGGU,3.61
14,UAUUCUA,-0.743
15,CUGCUGG,-0.236
16,UAGUUUA,-0.389
17,GAAACCC,-0.568
18,AAAUGGC,1.05
19,UUUCAGC,-0.675
20,CAUAUAC,-0.655
21,GAUAUGG,3.3
22,AGCGAUG,0.995
23,GUAAGAU,0.504

row,Sequence,RNAcompete 7-mer binding Z-score
1,UCAAGCC,-0.818
2,AGAUCAU,-0.646
3,CAGGUCG,0.475
4,GUUGAAA,0.439
5,ACUCCAG,-0.574
6,GCAGUCC,-0.623
7,CACCGAU,-0.519
8,UUGAGAG,0.664
9,GUUCCUU,-0.639
10,AAUAUAU,-0.405
11,GUUCUCU,-0.707
12,UUGGCCC,-0.376
13,GGGGCAU,2.54
14,CGUAGGG,1.94
15,UACCUAU,-0.629
16,AUGGGGA,4.27
17,AUCGGUC,-0.448
18,GGGUGCA,2.74
19,UCGGAAU,0.137
20,UGCCCGU,-0.448
21,CCUACUU,-0.889
22,GGCGGCA,1.05
23,CGGUGCA,0.205
